PubChem BioAssay AID485294 (National Center for Advancing Translational Sciences (NCATS), 2010)
About 150 (0.041%) of roughly 370,000 compounds were called active. The shares of active, inactive and inconclusive entries below differ from those in the screen. The call rests on the fitted dose curve; in most records, active means well fitted inhibition curve with a large enough effect; inconclusive means small, poorly fitted or top-dose-only effect; inactive means flat fitted curve, though single readings scatter. No potency is given beside an inconclusive call; the fits are too rough.

biological target: Beta-lactamase (Escherichia coli (strain K12)) (UniProt P00811); test: qHTS Inhibitors of AmpC Beta-Lactamase (assay with detergent); details: AmpC hydrolysis of nitrocefin, absorbance 480 nm, 0.01% Triton; series mostly up to 114 µM; further: nearly all actives have a fitted effect of over 25% in size
UniProt P00811, sequence (P00811 whole entry, looked up): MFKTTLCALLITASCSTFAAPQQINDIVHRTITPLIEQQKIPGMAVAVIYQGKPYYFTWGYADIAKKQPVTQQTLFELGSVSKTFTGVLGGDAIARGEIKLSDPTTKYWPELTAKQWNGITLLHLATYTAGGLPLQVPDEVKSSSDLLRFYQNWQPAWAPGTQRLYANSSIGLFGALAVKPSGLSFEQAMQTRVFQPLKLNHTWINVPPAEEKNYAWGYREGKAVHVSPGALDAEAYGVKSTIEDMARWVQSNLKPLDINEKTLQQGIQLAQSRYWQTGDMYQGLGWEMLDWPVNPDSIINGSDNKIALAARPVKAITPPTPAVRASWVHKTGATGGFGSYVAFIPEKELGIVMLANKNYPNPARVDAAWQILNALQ
How it was run: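 AmpC (5.3 nM in the dispensed reagent) in 20 mM phosphate pH 7.0 with 0.01% (detergent screen) or 0.0001% Triton X-100 was preincubated with compounds for 15 min at room temperature. Nitrocefin was then added from an 800 uM solution, and hydrolysis was followed at 480 nm.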
Potency means the concentration at half of the fitted maximal effect; tags describe the fitted curve by direction and shape.

| Structure (SMILES) | Potency |
| --- | --- |
| CC(CC(=O)Nc1ccc(F)c([N+](=O)[O-])c1)c1ccccc1 (stereo not given) | inconclusive [inhibitor, full curve, poor fit] |
| COc1ccc(N2CCN(CCCNC(=O)c3cc4sccc4n3C)CC2)cc1 | inconclusive [inhibitor, single point] |
| CN1CCN(c2ccc(/C=C3\C(=O)NC(=S)N(c4cccc(Br)c4)C3=O)o2)CC1 | inconclusive [inhibitor, partial curve] |
| Cn1c(=O)c2c(nc(SCc3ccc(C(=O)O)cc3)n2C)n(C)c1=O | inconclusive [inhibitor, full curve, poor fit] |
| Cc1csc(NC(=O)c2cccc([N+](=O)[O-])c2C(=O)O)n1 | inconclusive [inhibitor, full curve, poor fit] |
| O=C1CC(c2ccc(S(=O)(=O)N3CCN(c4ccccc4)CC3)cc2)CN1 (stereo not given) | inconclusive [inhibitor, partial curve, poor fit] |
| Cc1c(Cl)cccc1NC(=O)CCC(=O)NNC(=O)c1ccccc1Cl | inconclusive [inhibitor, single point] |
| COc1cccc(C2NC(=O)NC(O)(C(F)(F)F)C2C(=O)c2cccnc2)c1OC (stereo not given) | inactive |
| COc1ccc(CNC(=S)N2CCN(Cc3ccccc3)CC2)cc1 | inconclusive [inhibitor, partial curve] |
| Nc1ccc(N2C(=O)c3ccccc3C2=O)c(Cl)c1 | inconclusive [inhibitor, full curve, poor fit] |
| N[C@@H](Cc1c[nH]c2ccccc12)c1nnc(SCc2ccccc2)o1 | inconclusive [inhibitor, full curve, poor fit] |
| O=C(c1ccccc1)N1CCCc2ccccc21 | inactive |
| O=c1cc(N2CCCCC2)c2ccccc2o1 | inactive |
| O=C(O)Cc1ccc(C(=O)c2ccc(Cl)cc2Cl)s1 | inactive |
| COCC(=O)OCC(=O)Nc1cc(C)c(C)cc1[N+](=O)[O-] | inconclusive [inhibitor, full curve, poor fit] |
| Cc1ccc(C(=O)Nc2ccc(C(=O)N3CCCCC3C)cc2)cc1 (stereo not given) | inactive |
| c1csc(Cn2nnnc2CN2CCN(c3nc4ccccc4s3)CC2)c1 | inconclusive [inhibitor, full curve, poor fit] |
| Cc1ccc(Cl)cc1NC(=O)Cn1cc2c(n1)CCCC2 | inconclusive [inhibitor, full curve] |
| Cc1ccc(NC(=O)CCNS(=O)(=O)c2cc(Br)cnc2N)c(Cl)c1 | inconclusive [inhibitor, partial curve, poor fit] |
| CC(=O)c1cc(NC(=O)c2ccc(C)cc2)c(=O)oc1/C=C/N(C)C | inactive |
| C/C(=N\NC(=O)c1ccoc1C)c1ccc(Cl)s1 | inconclusive [inhibitor, full curve, poor fit] |
| Cc1cc(C)c(NC(=O)CNC(=O)CN2C(=O)NC3(CCCc4ccccc43)C2=O)c(C)c1 (stereo not given) | inconclusive [inhibitor, full curve, poor fit] |

| Structure (SMILES) | Potency |
| --- | --- |
| CCOC(=O)C1CCN(C(=O)CN(c2cc(OC)ccc2OC)S(=O)(=O)c2ccccc2)CC1 | inconclusive [inhibitor, full curve] |
| COc1cccc(OCC(=O)Nc2ccc(OC)c(OC)c2)c1 | inconclusive [inhibitor, full curve, poor fit] |
| Cc1cc(=O)oc2c3c(cc(OCC(=O)N[C@H](C(=O)O)c4ccccc4)c12)OC(C)(C)CC3 | inconclusive [inhibitor, partial curve] |
| Cc1cccc(NC(=O)CN(c2ccc(C(C)C)cc2)S(=O)(=O)c2c(C)nn(C)c2C)n1 | inconclusive [inhibitor, full curve, poor fit] |
| FC(F)(F)c1nnc(-c2ccccc2)nc1Oc1ccccc1 | inconclusive [inhibitor, full curve, poor fit] |
| Cn1cc(CC(=O)NCCCN2CCCC2=O)c2ccccc21 | inconclusive [inhibitor, full curve, poor fit] |
| Cc1ccn2cc(CCNC(=O)c3ccc(Br)o3)nc2c1 | inconclusive [inhibitor, full curve, poor fit] |
| COc1ccc(C(C)=O)cc1COC(=O)CCNS(=O)(=O)c1ccc(C)cc1 | inconclusive [inhibitor, full curve, poor fit] |
| Cc1oc(C(=O)O)cc1CSCc1cc(C(=O)O)c(C)o1 | inactive |
| CC(C)CNC(=S)N1CCN(c2nc(-c3ccc(Cl)cc3)cs2)CC1 | inconclusive [inhibitor, full curve, poor fit] |
| CC(=O)Nc1ccc(-c2csc(NC(=O)C3CCN(S(=O)(=O)c4cccs4)CC3)n2)cc1 | inconclusive [inhibitor, full curve, poor fit] |
| CN(CC(=O)Nc1cccc(F)c1)C(=O)c1cn2ccccc2n1 | inconclusive [inhibitor, full curve, poor fit] |
| CC(C)COc1ccc(C(=O)Nc2ccc(SC(F)F)cc2)cc1 | inconclusive [inhibitor, partial curve, poor fit] |
| Cc1ccc(CNC(=O)CCCc2nnc3n(C)c(=O)c4sccc4n23)cc1 | inactive |
| Cc1cccc(C)c1Oc1nc(-c2ccccc2)ncc1S(=O)(=O)c1ccccc1 | inactive |
| Cc1cc(C)cc(NC(=S)N2CCN(c3ccccn3)CC2)c1 | inactive |
| O=C(NCc1ccco1)C(=O)NCC1OCCN1S(=O)(=O)c1ccccc1 (stereo not given) | inconclusive [inhibitor, partial curve] |
| O=C(OCC(=O)N1CCCC1)c1cccc(Br)c1 | inconclusive [inhibitor, full curve, poor fit] |
| CCCCOC(=O)c1ccc(NC(=O)c2cc(-c3cccs3)on2)cc1 | inactive |
| O=C(/C=C/Nc1cccc([N+](=O)[O-])c1)c1cccs1 | inactive |
| CCOC(=O)c1c(C)[nH]c(C(=O)OCC(=O)N2CCN(S(=O)(=O)c3ccccc3)CC2)c1C | inconclusive [inhibitor, partial curve, poor fit] |
| O=C(O)CCCCNS(=O)(=O)/C=C/c1ccccc1 | inconclusive [inhibitor, full curve, poor fit] |

| Structure (SMILES) | Potency |
| --- | --- |
| O=C(CSC1=NCCS1)Nc1cccc2ccccc12 | inconclusive [inhibitor, full curve, poor fit] |
| CCOC(=O)C1=C(CSc2nc(-c3ccccc3)ccc2C#N)OC(N)=C(C#N)C1c1cccnc1 (stereo not given) | inconclusive [inhibitor, partial curve, poor fit] |
| O=C(NCCc1ccccn1)C1CC(=O)N(Cc2ccccc2Cl)C1 (stereo not given) | inconclusive [inhibitor, full curve, poor fit] |
| Cc1ccc(OCC(=O)Oc2c(C)cccc2C)cc1C | inconclusive [inhibitor, partial curve, poor fit] |
| COc1ccc(S(=O)(=O)/N=C2\C=C(Nc3ccc(O)cc3)C(=O)c3ccccc32)cc1 | inconclusive [inhibitor, full curve, poor fit] |
| Cc1cc2nc(-c3ccc(SCc4ccccn4)nc3)[nH]c2cc1C | inactive |
| Cc1cc(OCCn2cc(/C(N)=N/O)c3ccccc32)ccc1Cl | inconclusive [inhibitor, full curve, poor fit] |
| Cc1ccc(C)c(NC(=O)CSc2nnc(-c3cc4occc4n3C)n2-c2ccccc2C)c1 | inactive |
| Fc1ccc(-c2nnc(Cc3nnc(-c4ccc(F)cc4)o3)o2)cc1 | inconclusive [inhibitor, partial curve] |
| COC(=O)c1cc(NCc2ccc3c(c2)OCO3)ccc1N1CCOCC1 | inconclusive [inhibitor, single point] |
| Cc1ccc(NC(=O)CCCn2c(=O)c3cccn3c3cccnc32)cc1C | inactive |
| CCC(=O)Nc1ccc(/C(C)=N\NC(=O)c2ccc(OC)cc2)cc1 | inconclusive [inhibitor, partial curve] |
| O=[N+]([O-])c1cc([N+](=O)[O-])c(Oc2cncc(Cl)c2)cc1NN1CCCCC1 | inconclusive [inhibitor, partial curve] |
| COC(=O)c1ccc2c(c1)NC(=O)C(N1CCCCC1)S2 (stereo not given) | inconclusive [inhibitor, full curve, poor fit] |
| CC(C)CCNC(=O)C(c1ccc(O)cc1)N(Cc1cccs1)C(=O)C1COc2ccccc2O1 (stereo not given) | inconclusive [inhibitor, single point] |
| C=CCc1ccccc1OCC(O)CNC (stereo not given) | inconclusive [inhibitor, full curve, poor fit] |
| CCCCN1CCc2c([nH]c3ccccc23)C1=O | inconclusive [inhibitor, full curve] |
| CC(=O)/C(N=Nc1c(C)n(C)n(-c2ccccc2)c1=O)=C(\C)O | inconclusive [inhibitor, full curve, poor fit] |
| CCOC(=O)c1cc(S(=O)(=O)NCc2cccc(Cl)c2)[nH]n1 | inactive |
| CC(=O)Nc1ccc(CN2CCN(c3cccc(C(F)(F)F)c3)CC2)cc1 | inconclusive [inhibitor, full curve, poor fit] |
| CCOc1ccc(NC(=O)N2CCc3ccccc3C2)cc1 | inconclusive [inhibitor, full curve, poor fit] |
